Measured values from paper PMC12440807.
The source holds more than one record for some entries. This is not the full list of results. There may be further records. Some entries list several cross-links; each record is another pair of residues.

Tests used:
Assay in all cases: cross-linking mass spectrometry
Details in all cases: BS3, not determined
[1] = target: CDC73 (UniProt Q6P1J9)
[2] = target: CTR9 (UniProt Q6PD62)
[3] = target: LEO1 (UniProt Q8WVC0)
[4] = target: PAF1 (UniProt Q8N7H5)
[5] = target: POLR2E (UniProt P19388)
[6] = target: SKIC8 (UniProt Q9GZS3)
[7] = target: SUPT6H (UniProt Q7KZ85)
[8] = target: RECQL5 (UniProt O94762)

Substance | cross-linked residues [1] | cross-linked residues [2] | cross-linked residues [3] | cross-linked residues [4] | cross-linked residues [5] | cross-linked residues [6] | cross-linked residues [7] | cross-linked residues [8]
RECQL5, O94762 | K46 - K283 and K103 - K161 and K110 - K47 and K110 - K283 and K294 - K283 and K733 - K47 and K733 - K209 and K733 - K283 and K743 - K161 and K848 - K198 and K848 - K283 and K960 - K47 and K960 - K136 and K960 - K198 and K960 - K209 and K960 - K283 | K46 - K1011 and K103 - K913 and K103 - K933 and K103 - K939 and K103 - S941 and K103 - K980 and K103 - K1011 and K103 - K1025 and K103 - K1051 and K103 - S1055 and K110 - K849 and K110 - K933 and K110 - K939 and K110 - S941 and K110 - K980 and K110 - K1011 and K110 - K1025 and K110 - K1027 and K110 - K1051 and K211 - K933 and K211 - S941 and K211 - K1011 and K211 - S1054 and K243 - K939 and K294 - K913 and K294 - K933 and K294 - S941 and K429 - S943 and K476 - K884 and K476 - K886 and K476 - K913 and K476 - K939 and K661 - K868 and K733 - K444 and K733 - K637 and K733 - K833 and K743 - K471 and K743 - K637 and K743 - K833 and K743 - K844 and K848 - K637 and K960 - K369 and K960 - K393 and K960 - K833 | K103 - K559 and K103 - K591 and K103 - K618 and K103 - K639 and K110 - K289 and K110 - K618 and K389 - K591 and T438 - S110 | K22 - K359 and K46 - A2 and K46 - K305 and K103 - A2 and K103 - K133 and K110 - A2 and K110 - S233 and K110 - K338 and K110 - K359 and K294 - A2 and K429 - A2 and K476 - A2 and K548 - A2 and K598 - A2 and K613 - A2 and K613 - K133 and K733 - A2 and K743 - A2 and K743 - K68 and T755 - A2 and K848 - A2 and K960 - A2 and K960 - K133 and K960 - K305 | K294 - K115 and K476 - K85 | K743 - K140 and K749 - K29 and K848 - K140 and K960 - K139 and K960 - K140 | K46 - K1005 and K103 - K111 and K110 - K29 | –
SUPT5H, O00267 | – | – | – | – | – | – | – | S2 - K46 and S2 - K103 and S2 - K110 and S2 - K211 and S2 - K294 and K143 - K211 and K143 - K429 and K175 - K476 and K231 - K455 and K231 - K476 and K258 - K476
